# Source: PubChem BioAssay AID2675 (National Center for Advancing Translational Sciences (NCATS), 2010)
# The whole screen tested about 280,000 compounds, of which about 100 (0.036%) were called active. The inconclusive results got no clear call from the source; some entries with a clear call stand among them for comparison. Calls follow the shape of the dose curve; as a rule, active = well fitted inhibition curve with a large enough effect in the signal ratio, with a control signal flat (not every such curve was filed as active); inconclusive = small, poorly fitted or top-dose-only effect, or effect the other way, or a change in a side signal; inactive = no such curve, though single readings can be large or run the other way; the % refers to the signal ratio. Where the call is inconclusive, the potency comes from a doubtful curve fit. “Side channel” marks fits to a control or component signal instead of the main read-out.
# Target: Muscleblind-like protein 1 (Homo sapiens) (UniProt Q9NR56)
# Assay: qHTS Assay for Inhibitors of MBNL1-poly(CUG) RNA binding
# Settings: TR-FRET MBNL1-His/biotin-(CUG)12 binding, 665/545 ratio; activity change, negative = inhibition: at 57.5 µM (top of the series)
# Summary of the method: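 TR-FRET readout: Ex 340 nm, 665/545 nm emission ratio, normalized to buffer-only (basal) and MBNL1-(CUG)12 controls. Complex of MBNL1-His with Biotin-(CUG)12, compounds 92 nM–58 uM, incubated 60 min at room temperature.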
# % is scaled to controls: 0 for no effect and ±100 for the full control effect; potency is read from the fitted curve at half-maximal effect; tags tell the direction and shape of the fitted curve or compound fluorescence and quenching.
# Chain of UniProt Q9NR56 (Q9NR56 whole entry, looked up): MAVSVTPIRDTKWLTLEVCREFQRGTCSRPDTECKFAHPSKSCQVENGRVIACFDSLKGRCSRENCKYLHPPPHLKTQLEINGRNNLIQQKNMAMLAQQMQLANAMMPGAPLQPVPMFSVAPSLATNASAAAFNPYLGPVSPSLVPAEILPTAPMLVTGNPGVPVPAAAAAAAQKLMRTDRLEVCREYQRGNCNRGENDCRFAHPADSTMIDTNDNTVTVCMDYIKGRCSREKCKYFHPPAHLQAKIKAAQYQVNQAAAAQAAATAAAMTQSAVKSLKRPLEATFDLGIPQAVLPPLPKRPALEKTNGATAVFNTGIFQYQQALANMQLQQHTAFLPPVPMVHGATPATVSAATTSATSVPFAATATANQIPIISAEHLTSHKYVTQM
SMILES,Potency,"activity change, negative = inhibition"
CC(=O)Nc1ccc(S(=O)(=O)NC2=C(N3CCN(c4ccc(F)cc4)CC3)C(=O)c3ccccc3C2=O)cc1,"inconclusive: 8.91 µM [quencher, side channel, partial curve]",–
O=[N+]([O-])c1cc([N+](=O)[O-])c2nonc2c1Nc1ccccc1O,"inconclusive: 12.6 µM [quencher, side channel, partial curve]",–
CCCN1CCC(N2CCN(c3ccc([N+](=O)[O-])cc3)CC2)CC1,"inconclusive: 14.1 µM [quencher, side channel, partial curve]",–
Cc1ccc(/C=C2\Oc3c(ccc(O)c3CN3CCN(CCO)CC3)C2=O)cc1,"inconclusive: 31.6 µM [quencher, side channel, single point]",–
CCOC(=O)/C(C#N)=C1/C=Nc2ccccc2N1,"inconclusive: 11.2 µM [quencher, side channel, partial curve]",–
O=C(COC(=O)Cn1cnc2ccccc2c1=O)Nc1cc(Cl)ccc1[N+](=O)[O-],"inconclusive: 3.55 µM [quencher, side channel, full curve]",–
Cc1ccc(S(=O)(=O)N(C)c2ccc(OCC(=O)Nc3nc4ccccc4s3)cc2)cc1,"inconclusive: 39.8 µM [quencher, side channel, single point]",–
NC(=O)CC(NC(=O)Cc1ccc(Br)cc1)c1ccc(NCCN2CCOCC2)c([N+](=O)[O-])c1 (configuration not stated),"inconclusive: 11.2 µM [quencher, side channel, partial curve]",–
COc1ccc(N2CCN(CCNC(=O)Nc3cccc(C)c3C)CC2)cc1,"inconclusive: 22.4 µM [fluorescent, side channel, single point]",–
O=[N+]([O-])c1ccc(NC(=S)NCc2ccncc2)cc1,"inconclusive: 7.94 µM [quencher, side channel, partial curve]",–
CC(C)c1ccc(NC(=S)Nc2cccc3ccccc23)cc1,"inconclusive: 31.6 µM [quencher, side channel, single point]",–
Cn1c(SCc2ccccc2[N+](=O)[O-])nnc1-c1cccnc1,"inconclusive: 25.1 µM [quencher, side channel, partial curve]",–
O=C(/C=C/c1ccccc1)Nc1ccc(N2CCCCC2)cc1,inactive,–
CC(=O)N/C(=C/c1ccc([N+](=O)[O-])cc1)C(=O)O,"inconclusive: 12.6 µM [quencher, side channel, partial curve]",–
O=[N+]([O-])c1ccc(N2CCN(Cc3ccccc3)CC2)nc1,"inconclusive: 7.94 µM [quencher, side channel, partial curve]",–
O=C(Cc1ccccc1)Nc1cccc([N+](=O)[O-])c1,"inconclusive: 22.4 µM [quencher, side channel, partial curve]",–
COC(=O)COc1cc(OCC(=O)OC)c2c(-c3ccccc3)cc(=O)oc2c1,"inconclusive: 17.8 µM [quencher, side channel, single point]",–
CCN(CC)c1ccc(NC2=C(Cl)C(=O)c3ccccc3C2=O)cc1,"inconclusive: 2.82 µM [quencher, side channel, full curve, poor fit]",–
CCc1ccccc1NS(=O)(=O)c1ccc2[nH]cc(C(=O)NC3CCCC3)c(=O)c2c1,"inconclusive: 28.2 µM [fluorescent, side channel, single point]",–

SMILES,Potency,"activity change, negative = inhibition"
COc1ccc(NC(=S)N(CCCN2CCCC2)Cc2cccs2)cc1,inactive,–
CC(C)(C)c1ccc(OCC(=O)NNC(=O)C2CCCO2)cc1 (configuration not stated),"inconclusive: 11.2 µM [quencher, side channel, partial curve]",–
O=C(Nc1cccnc1)c1ccc([N+](=O)[O-])o1,"inconclusive: 6.31 µM [quencher, side channel, partial curve]",–
CCC1(C)Cc2c(sc3nnn(CC(=O)Nc4ccc(C)cc4)c(=O)c23)CO1 (configuration not stated),"inconclusive: 17.8 µM [quencher, side channel, partial curve]",–
Cc1cccc(OC(C)c2ccnc3nc(/N=C/N(C)C)nn23)c1 (configuration not stated),inactive,–
C/C(N)=C(/C#N)C(=O)COC(=O)c1cc(-c2cccc(Br)c2)nc2ccccc12,–,inconclusive: -11.4% [phenotype inactive]
COc1ccc(OC)c(NS(=O)(=O)c2ccc(SC)cc2)c1,"inconclusive: 3.16 µM [quencher, side channel, single point]",–
CCOc1ccccc1N(CC(=O)Nc1cccnc1)S(C)(=O)=O,inactive,–
COc1ccc(C(CNc2ccc(S(C)(=O)=O)cc2[N+](=O)[O-])N(C)C)cc1OC (configuration not stated),"inconclusive: 14.1 µM [quencher, side channel, partial curve]",–
NC(=O)c1c(N)sc(=S)n1-c1ccccc1,"inconclusive: 22.4 µM [quencher, side channel, partial curve]",–
CC(=O)Nc1ccc(NC(=O)C2CCCN2C(=O)Nc2ccccc2[N+](=O)[O-])cc1 (configuration not stated),"inconclusive: 15.8 µM [quencher, side channel, partial curve]",–
Cc1ccc(C(=O)C(C)[n+]2cccc(C(N)=O)c2)cc1 (configuration not stated),inactive,–
CCOc1ccc(NC(=O)CCS(=O)(=O)c2cccc3nsnc23)cc1,"inconclusive: 14.1 µM [quencher, side channel, partial curve]",–
CC(=C/c1ccccc1)/C=C1/SC(N2CCOCC2)=NC1=O,"inconclusive: 8.91 µM [quencher, side channel, partial curve]",–
CCc1ccc2[nH]c(=O)c(C(c3nnnn3CC3CCCO3)N3CCCc4ccccc43)cc2c1 (configuration not stated),"inconclusive: 14.1 µM [quencher, side channel, single point]",–
C/C(=N/NC(=O)c1cc(O)c(O)c(O)c1)c1ccc([N+](=O)[O-])cc1,"inconclusive: 39.8 µM [quencher, single point]",–
CCCC(=O)Nc1ccc(-c2ccc(NC(=O)CCC)cc2)cc1,"inconclusive: 0.316 µM [fluorescent, side channel, full curve, poor fit]",–
O=C(Nc1nc2ccccc2s1)c1ccccc1[N+](=O)[O-],"inconclusive: 12.6 µM [quencher, side channel, partial curve]",–
O=C1c2ccc(Oc3ccc4c(c3)C(=O)N(CCCO)C4=O)cc2C(=O)N1CCCO,"inconclusive: 11.2 µM [quencher, side channel, partial curve]",–

SMILES,Potency,"activity change, negative = inhibition"
O=C(NN1CCOCC1)c1ccc(Cl)cc1[N+](=O)[O-],"inconclusive: 14.1 µM [quencher, side channel, partial curve]",–
COc1cccc(/C=C/C(=O)OCC(=O)Nc2cc(C(F)(F)F)ccc2Cl)c1,"inconclusive: 251 µM [inhibitor, partial curve, poor fit]",–
CCOC(=O)c1ccc(-c2ccc(CO)o2)cc1,"inconclusive: 31.6 µM [quencher, side channel, single point]",–
CSc1nc(C(C)C)ccc1CNC(=O)CC(C)c1ccccc1 (configuration not stated),inactive,–
CCCCN(CCCNC(=O)c1c(C)cc(=O)oc1C)c1ccccc1,"inconclusive: 7.08 µM [quencher, side channel, single point]",–
O=C(N/N=C/C=C/c1ccccc1)C1CC1c1ccccc1 (configuration not stated),"inconclusive: 39.8 µM [quencher, side channel, single point]",–
N#Cc1ccc2c(c1)nc1ccccn12,"inconclusive: 31.6 µM [quencher, side channel, single point]",–
COc1cccc2c1C(=O)c1ccc3ccccc3c1C2=O,"inconclusive: 4.47 µM [quencher, side channel, partial curve]",–
Nc1c(C(=O)O)sc2nc(-c3ccccc3)c3c(c12)CCCC3,inactive,–
O=C(O)C1=C[C@H](c2csc3ccccc23)C[C@H](OCCCCO)O1,"inconclusive: 17.8 µM [quencher, side channel, partial curve]",–
O=C(N/N=C/C(Br)=C\c1ccccc1)c1n[nH]c2c1CCC2,inactive,–
O=C(Nc1nccs1)c1cc(Cl)ccc1[N+](=O)[O-],"inconclusive: 17.8 µM [quencher, side channel, partial curve]",–
COc1cc(/C=N/n2cnnc2-n2nc(C)cc2C)cc([N+](=O)[O-])c1O,"inconclusive: 35.5 µM [quencher, side channel, single point]",–
Cc1nn(-c2cc(N3CCOCC3)ccc2[N+](=O)[O-])c(=O)c2ccccc12,"inconclusive: 17.8 µM [quencher, side channel, partial curve]",–
COc1ccc(Cl)cc1NC(=O)COC(=O)CNC(=O)c1ccc([N+](=O)[O-])c(C)c1,"inconclusive: 3.55 µM [quencher, side channel, single point]",–
CCCCCOc1ccc(C2C(C(C)=O)=C(C)Nc3ncnn32)cc1OC (configuration not stated),inactive,–
CC(=O)Cc1nsc(NC(=O)c2ccc(-c3ccc(F)cc3)o2)n1,"inconclusive: 31.6 µM [quencher, side channel, single point]",–
COc1cc(/C=N/NC(=O)c2ccc3nc[nH]c3c2)ccc1O,"inconclusive: 14.1 µM [quencher, side channel, partial curve]",–
COc1ccccc1Nc1ncccc1[N+](=O)[O-],"inconclusive: 7.08 µM [quencher, side channel, partial curve]",–
